83 variants from the RNAGym collection of RNA variant scans (doi:10.7554/elife.90254) can be followed below.

The source gives no read counts; variants with many changes may rest on few reads.

The labels stand for the following.
B1: OR4K15 (parent)
chain: GUUAACGGUCAUAGGCCAUGGAAACUAGGAGCACCAUUUCGCUGCCAGUGAAGAAAUGAACAAAGAAAAUCUGGGCCAGGCAGGCAUCAAAAGAAAUAGUCUUGCGCUCAACCAGAAAGUCUGUAAUCAUUUUAAGGGUA

In this series the parent is B1. The series is described as follows: self-cleavage, relative activity (ratio to wild type); higher = more cleavage; in vitro, sequencing; the parent is a self-cleaving ribozyme.
Take U2A A27U U130C: the self-cleavage came to 1.21.
In the case of G1A A36G A62G A92G it was 1.26; in that of U2A A22G A89G A95G, 0.88.
In the case of U2C C10A A51G U57C U100C U108C, the self-cleavage turned out to be 0.04.
Consider U2C A11G A13U U100C, for which the self-cleavage amounted to 1.81.
In the case of U2C C6U A18U A54U it was 1.02.
Next, U2A A63G A82G A90G: 0.45; U2A A60G A96G A116G U122C: 1.18.
On to U2C A5U A55G A56G, for which the self-cleavage is 0.61.
In the case of U2C U87C A92G it was 0.78.
Regarding U2C A4G A51G A52G A56G, the self-cleavage came to 1.14.
Next, U2C A56C U108A: 0.05; G1A U37C A90U A92G A117G: 1.6.
Next, U2C A47U A91G A110U: 0.21.
Next, U2A A5G A91G U100C: 2.37.
As for U2C U9C C10U U26A A114C, the self-cleavage is 0.03.
In the case of U2C A67G A78G U120C it was 0.31; in that of U2A U70A A96U C113G, 0.02.
In the case of U2A U39C A51G U108C it was 0.08; in that of U2C U39A U49C G74A G123C, 0.08.
Regarding U2C G58U U70C A78G A90G, the self-cleavage stood at 0.2.
In the case of U2C U72C A117G U122C it was 0.18; in that of U2A U9G U70C A91G U122C, 0.22.
For U2A A27G A36U, the self-cleavage amounted to 1.46.
For U2C U57C A98G U122C, the self-cleavage is 0.97.
In the case of U2C A11U U19G A22G U103C A116G U120G U122A U133C, the self-cleavage came to 0.12.
Turning to U2C A62G U108G, the self-cleavage stood at 0.
As for G1U U72A U102C U132C, the self-cleavage is 0.43.
Next, U2C U9C A11U U108A: 0.08.
Next, U2C A11G A51G A117G: 1.07; U2A A66G A89G A140G: 1.06; U2C A11G A129U: 1.25.
Next, U2C A68G A90G: 0.55; G1A A22G A82U U132C: 0.34; U2C A30G A86U U102C U139A: 1.95.
Consider U2C A22U A52G, for which the self-cleavage is 0.85.
In the case of U2C A47G U122C it was 0.46; in that of U2C A86U A111C, 0.07; in that of G1A A22G U43A A47G A78C G106A, 0.03.
Next, U2C A54G U103C: 1.2; U2C A22G A63G: 1.62; U2C U39C C45U: 1.08.
In the case of U2A A11G A33C it was 1.21; in that of U2A A52G A126G, 0.82; in that of G1A U19A A24G A30G U122C, 1.36.
Consider U2A G74U U108C, for which the self-cleavage was 0.04.
As for U2C A4G U9C A116U, the self-cleavage came to 0.21.
As to U2C A5G A60C A82U U108G, the self-cleavage worked out at 0.
In the case of U2C U19C U102C A117G it was 2.02; in that of G1A A36U A90G A125G A140U, 0.11.
Next, U2C U26C U70C G74A A92G A96C U103A: 0.01.
Next, U2C A5G A55G A60G A114U: 0; U2G G21U U72C G123A: 0.11; U2A U72A A117G U127C: 0.09.
As to U2A A64G U70C A91G A125G, the self-cleavage is 0.11.
Next, U2A A22G A30U A90G: 1.03; U2C A59G A63G: 0.31; U2A A67G A90G: 1.23.
As to G1A A52G A90G, the self-cleavage was 1.68.
In the case of U2C A13G A23C it was 0.91.
Next, U2C A5G A36C: 1.55; U2C A63G A91G A135G: 1.39.
Next, U2A A67G A68G U87C A92G: 1.54.
For U2C U39C A54G U72C U100C A118G, the self-cleavage is 0.15.
With U2C A30U A47G A52G A117U, the self-cleavage came to 0.08.
Next, U2C A24G G115U: 0.27; U2C A69G A96G C112U: 0.04; U2C A18C A27G U43G A55G A60G G74A U97G U122A: 0.05.
In the case of G1U A52G U87C A111G A125G it was 0.
Take U2C U43A U57A A82G A94G: the self-cleavage worked out at 0.59.
In the case of U2C A5G U39C A52G A86U it was 0.28.
Next, U2C G28U C34U C40U A51U A54G A55U U130C: 0.55; U2C U9C A82U A91G: 0.2.
Consider U2A A5G U87C A90G C101A, for which the self-cleavage stood at 0.
In the case of U2G A4U A52G A56G it was 0.71; in that of U2A A92G U102C A126G, 1.56.
In the case of U2C U39A U100C it was 1.36.
Take U2C A47G A51G A52G: the self-cleavage came out at 0.46.
Next, U2C G29A A69C U70A U108C: 0.07; U2C A69G U100A: 0.57; U2C A52U G137A: 1.79.
In the case of U2C C16G A116U it was 0.21; in that of U2A A18G U87C, 1.4.
